Measurements published in PubChem BioAssay AID206 (DTP/NCI, 2004).
Inconclusive results are not listed. Certain results were filed several times, with different values. The other results are left out here. The source may hold further records. Results that share an entry repeat one measurement across runs, samples, wells, individuals or studies.

Test system: nude mice, HT29 intrarenal xenograft, tumor weight T/C
Experiment: NCI In Vivo Anticancer Drug Screen. Data for tumor model HT29;CX-1 Human Adenocarcinoma (MER+) (intrarenal inoculation) in NU/NU Swiss (nude) mice
Settings: endpoint: mean tumor weight change, higher = larger tumour
Description: The antitumor activity of compounds was measured in mice bearing transplantable tumors. Survival or tumor size were measured and the results are expressed as the measurement made in the treated group (T) divided by the measurement made in the vehicle treated control group (C). The tumor model used in this assay is HT29;CX-1 Human Adenocarcinoma (MER+) (intrarenal inoculation) in NU/NU Swiss (nude) mice

CC[C@@]1(O)C(=O)OCc2c1cc1n(c2=O)Cc2cc3cc(O)ccc3nc2-1
T/C (dose: 8.0 mg/kg/injection, schedule: Q04DX004 (sc), vehicle: suspension in saline): -20 % of control and 18 % of control
T/C (dose: 16.0 mg/kg/injection, schedule: Q04DX004 (sc), vehicle: suspension in saline): -53 % of control and 4 % of control
T/C (dose: 32.0 mg/kg/injection, schedule: Q04DX004 (sc), vehicle: suspension in saline): -97 % of control and -14 % of control
T/C (dose: 64.0 mg/kg/injection, schedule: Q04DX004 (sc), vehicle: suspension in saline): -98 % of control and -42 % of control

Oc1c(Cl)cc(Cl)cc1C1N2CCCCC2C2c3cccn3-c3ccccc3N21 (configuration not stated)
T/C (dose: 75.0 mg/kg/injection, schedule: Q04DX004 (sc), vehicle: Klucel (hydroxypropylcellulose) (HPC)): 38 % of control, 46 % of control, 150 % of control

O=C1C=CN(C2OC(CO)C(O)C2O)C(=O)C1 (configuration not stated)
T/C (dose: 25.0 mg/kg/injection, schedule: Q01DX010 (sc), vehicle: saline): 65 % of control and 94 % of control

COc1cccc2c1C(=O)c1c(O)c3c(c(O)c1C2=O)C[C@@](O)(C(=O)COC(=O)c1cccnc1)C[C@@H]3OC1CC(N)C(O)C(C)O1 (some centres not stated)
T/C (dose: 12.0 mg/kg/injection, schedule: Q04DX004 (sc), vehicle: saline): 50 % of control and 90 % of control

C[C@]12C=CC(=O)C=C1CC[C@@H]1[C@@H]2C(=O)C[C@@]2(C)[C@H]1CC[C@]2(O)C(=O)CO
T/C (dose: 300.0 mg/kg/injection, schedule: Q04DX004 (sc), vehicle: Klucel (hydroxypropylcellulose) (HPC)): 14 % of control, 24 % of control, 44 % of control

O=C(O)CCCc1ccc(N(CCCl)CCCl)cc1
T/C (dose: 4.0 mg/kg/injection, schedule: Q01DX010 (sc), vehicle: saline with Tween-80): 95 % of control, 124 % of control, 440 % of control
T/C (dose: 8.0 mg/kg/injection, schedule: Q01DX010 (sc), vehicle: saline with Tween-80): 20 % of control, 58 % of control, 112 % of control
T/C (dose: 16.0 mg/kg/injection, schedule: Q01DX010 (sc), vehicle: saline with Tween-80): 18 % of control and 73 % of control

Cc1ccccc1N(CC1CO1)CC1CO1 (configuration not stated)
T/C (dose: 400.0 mg/kg/injection, schedule: Q01DX010 (sc), vehicle: suspension in saline): 21 % of control and 112 % of control

CCCCCC1c2cc(O)ccc2OC1N1CCOCC1 (configuration not stated)
T/C (dose: 300.0 mg/kg/injection, schedule: Q04DX004 (sc), vehicle: saline with Tween-80): 39 % of control, 51 % of control, 81 % of control
T/C (dose: 600.0 mg/kg/injection, schedule: Q04DX004 (sc), vehicle: saline with Tween-80): 31 % of control, 70 % of control, 150 % of control

N#Cc1cn(C2OC(CO)C(O)C2O)c2ncnc(N)c12 (configuration not stated)
T/C (dose: 0.5 mg/kg/injection, schedule: Q01DX010 (sc), vehicle: saline): 43 % of control and 104 % of control

COc1cccc2c1C(=O)c1c(O)c3c(c(O)c1C2=O)C[C@@](O)(C(C)=O)C[C@@H]3OC1CC(N(Cc2ccccc2)Cc2ccccc2)C(O)C(C)O1 (some centres not stated)
T/C (dose: 125.0 mg/kg/injection, schedule: Q04DX004 (sc), vehicle: water): 78 % of control and 113 % of control

CC1=C(C)C(=O)O[C@@H]([C@](C)(O)[C@]2(O)CC[C@@]3(O)[C@@H]4C[C@H]5O[C@]56[C@@H](O)C=CC(=O)[C@]6(C)[C@H]4CC[C@]23C)C1
T/C (dose: 8.0 mg/kg/injection, schedule: Q01DX010 (sc), vehicle: saline): 122 % of control and 166 % of control
T/C (dose: 16.0 mg/kg/injection, schedule: Q01DX010 (sc), vehicle: saline): 28 % of control, 50 % of control, 110 % of control
T/C (dose: 32.0 mg/kg/injection, schedule: Q01DX010 (sc), vehicle: saline): -29 % of control, 81 % of control, 86 % of control

Nc1ncn(C2OC(CO)C(O)C2O)c(=O)n1 (configuration not stated)
T/C (dose: 400.0 mg/kg/injection, schedule: Q04DX004 (sc), vehicle: suspension in saline): 49 % of control and 76 % of control

COc1cccc2c1C(=O)c1c(O)c3c(c(O)c1C2=O)C[C@@](O)(C(=O)CO)C[C@@H]3OC1CC(N)C(O)C(C)O1 (some centres not stated)
T/C (dose: 0.5 mg/kg/injection, schedule: Q01DX010 (ip), vehicle: water): -14 % of control and 102 % of control
T/C (dose: 0.5 mg/kg/injection, schedule: Q01DX010 (sc), vehicle: water): 19 % of control, 25 % of control, 94 % of control
T/C (dose: 1.0 mg/kg/injection, schedule: Q01DX010 (ip), vehicle: water): -31 % of control and 91 % of control

[N-]=[N+]=CC(=O)CCC(=O)C=[N+]=[N-]
T/C (dose: 9.0 mg/kg/injection, schedule: Q04DX004 (sc), vehicle: DMSO): 109 % of control and 164 % of control
T/C (dose: 18.0 mg/kg/injection, schedule: Q04DX004 (sc), vehicle: DMSO): 79 % of control and 116 % of control

CNc1nc(N(C)C)nc(N(C)C)n1
T/C (dose: 30.0 mg/kg/injection, schedule: Q01DX010 (sc), vehicle: water): 64 % of control, 84 % of control, 201 % of control
T/C (dose: 60.0 mg/kg/injection, schedule: Q01DX010 (sc), vehicle: water): 25 % of control, 90 % of control, 98 % of control
T/C (dose: 120.0 mg/kg/injection, schedule: Q01DX010 (sc), vehicle: water): 8 % of control and 38 % of control

CCCCCCCCCCCCCCCC(=O)Nc1ccn(C2OC(CO)C(O)C2O)c(=O)n1 (configuration not stated)
T/C (dose: 112.5 mg/kg/injection, schedule: Q04DX004 (sc), vehicle: water): 2 % of control, 32 % of control, 70 % of control
T/C (dose: 225.0 mg/kg/injection, schedule: Q04DX004 (sc), vehicle: water): -27 % of control, 16 % of control, 25 % of control
T/C (dose: 450.0 mg/kg/injection, schedule: Q04DX004 (sc), vehicle: water): -28 % of control and 3 % of control

CN(C)/N=N/c1nc[nH]c1C(N)=O
T/C (dose: 200.0 mg/kg/injection, schedule: Q01DX010 (sc), vehicle: Klucel (hydroxypropylcellulose) (HPC)): 47 % of control and 100 % of control

CN=C(N)N/N=C(\c1ccccc1)c1ccc(Br)cc1
T/C (dose: 12.5 mg/kg/injection, schedule: Q04DX004 (sc), vehicle: saline with Tween-80): -70 % of control, 78 % of control, 113 % of control
T/C (dose: 25.0 mg/kg/injection, schedule: Q04DX004 (sc), vehicle: saline with Tween-80): -8 % of control, 37 % of control, 107 % of control

CN(C=O)C(C(=O)Nc1cccc2c(OC(=O)C(N(C)C=O)(N(C)C=O)N(C)C=O)c(N=Nc3ccc(S(=O)(=O)Nc4nccs4)cc3)cc(N=Nc3ccc(S(=O)(=O)Nc4nccs4)cc3)c12)(N(C)C=O)N(C)C=O (tested in a mixture with another compound)
T/C (dose: 2400.0 mg/kg/injection, schedule: Q04DX004 (sc), vehicle: saline with Tween-80): 56 % of control and 107 % of control

CCOC(=O)C(CC(C)C)NC(=O)C(Cc1ccc(N(CCCl)CCCl)cc1)NC(C)=O (configuration not stated)
T/C (dose: 25.0 mg/kg/injection, schedule: Q01DX010 (sc), vehicle: saline with Tween-80): 75 % of control, 77 % of control, 108 % of control
T/C (dose: 400.0 mg/kg/injection, schedule: Q01DX010 (sc), vehicle: saline with Tween-80): 25 % of control and 81 % of control
